“And” between values parts separate entries of the source, which are not always exact repeats. Identical values can stand only once. Among all 150,000 compounds or so, about 540 (0.36%) showed an effect of 50% or more. The list shows a part of the results.
System: Plasmodium falciparum
Test: Primary screen in NF54 nanoGlo assay, in single point, at 2uM, 72h; a lower Z score goes with more inhibition
Type: functional, Erythrocyte
Details: timepoint 72 hour

SMILES	% Inhibition [%]	Z score	% Inhibition (2 µM)
Cc1ccc(NC(=O)c2cnn(CC3CC3)c2)cc1N1C(=O)CNC1=O	-1	0.23	–
CC(C)(CNC(=O)C1(C#N)CCCC1)c1cccs1	-2	0.43	–
CCC(=O)N1CCc2cc(C)c(S(=O)(=O)NCc3ccco3)cc21	-8	1.64	–
CCc1noc(C)c1NC(=O)N1Cc2cccnc2N2CCC[C@@H]2C1	-16	1.64	–
COC(=O)C[C@H](c1cc(OC)c2c(c1)OCCO2)c1c(C)[nH][nH]c1=O	-2	0.22	–
Cc1cc(NS(=O)(=O)c2cc(F)ccc2OC(C)C)cc(C)n1	0	-0.01	–
COC(=O)[C@H](C)N(Cc1ccccc1)C(=O)c1noc2c1CCCC2	-5	0.86	–
Nc1nc2ccc(N3CCOCC3)cc2s1	-13	1.6	–
O=S(=O)(N[C@@H]1C[C@H]2CC[C@@H]1C2)c1cccs1	-10	1.52	–
COc1cccc(N2C[C@H](Cc3ccccc3)N(C(=O)CCC(N)=O)CC2=O)c1	-1	0.14	–
Cn1nccc1CCC(=O)N[C@H]1CCOC[C@@H]1Oc1ccccn1	-18	1.8	–
COc1ccc(OC)c([C@@H]2CCCN2CN2C(=O)NC3(CCCCCCC3)C2=O)c1	-15	2.76	–
NC(=O)c1c[nH]c(C(=O)NCc2[nH]nc3c2CCCC3)c1	-14	2.12	–
O=C(CCc1nnc2c3cc(-c4ccc(Cl)cc4)nn3ccn12)NCc1ccccc1	-9	1.3	–
COc1ccc(-n2cc3c(c2-c2ccccc2)c(=O)n(-c2ccccc2)n3C)cc1	-10	1.33	–
C[C@H]1CN(C(=O)C2(C#N)CCCC2)c2ccccc2CN1C(=O)OC(C)(C)C	0	-0.05	–
Cc1ccc(Cl)cc1NC(=O)C1CCCN(S(=O)(=O)c2ccc3c(c2)NC(=O)C(C)O3)C1 (stereo not given)	-8	1.21	–
Cc1nc(C2CCCN2C2CCN(CC(F)(F)F)C2=O)no1 (stereo not given)	-15	1.65	–
CC(=O)N1Cc2ccccc2C[C@H]1C(=O)N(C)Cc1cccc(=O)[nH]1	6	-0.83	–
CC(=O)Nc1ccc(NC(=O)CCc2ccc3ccn(C)c3c2)cc1	-4	0.5	–
COc1ccc(C2CCN(C(=O)[C@H](N)c3ccccc3C)CC2)nc1	-5	0.7	–
Cc1n[nH]c([C@H]2CCCN(Cc3nonc3C)C2)n1	1	-0.08	–
Cc1cncc(-c2ccc(N3CCCC3=O)c(C)c2)c1	-11	2.14	–
CCCc1occc1C(=O)NS(=O)(=O)c1c(C)nn(C)c1OC	7	-0.59	–
Cc1ccc(F)cc1S(=O)(=O)N(CCCN1CCOCC1)[C@H]1CCCNC1	4	-0.47	–
Cc1ccc2c(c1)[C@@H](NC(=O)C(C)(C)c1c(C)noc1C)CCC2	-7	1.3	–
Cc1ccnc(NCCc2csc(N3CCCC3)n2)n1	15	-1.7	–

SMILES	% Inhibition [%]	Z score	% Inhibition (2 µM)
COC[C@@H]1CN(Cc2ccc(F)c(OC)c2)C[C@H]1c1nc(C)no1	-5	0.81	–
COc1cc2c(cc1OC)C(NC(=O)[C@H](C)n1cnnn1)CC2 (stereo not given in full)	-2	0.25	–
Cn1nccc1C(=O)N1CCC(F)(F)[C@@H](COCc2ccccc2)C1	1	-0.22	–
CC(C)(C)OC(=O)N1CCN(C(=O)CC#N)CCN(C(=O)CC#N)CC1	-9	1.57	–
CCC(=O)NCCn1nc(C(F)(F)F)c2c1CCOC2	0	-0.05	–
CCCC(CCC)C(=O)NCc1ccc[nH]1	-3	0.46	–
Cc1nnc(N2CC(C)(C)[C@H]2c2nccn2C)nc1C	-8	0.96	–
Cc1cccc(NC(=O)c2ccc(COc3cccc4ccccc34)o2)n1	-21	2.85	–
CC1=C(c2ccccc2)[C@H]1C(=O)N1CCC(c2nccn2CC2CCC2)CC1	1	-0.14	–
O=C(c1cc[nH]n1)N1CCC(n2c(=O)[nH]c3ccccc3c2=O)CC1	-16	2.06	–
O=C(NCc1nnc2n1CC[C@H](C(F)(F)F)C2)Nc1ccccc1	-10	1.98	–
N[C@H]1CCN(C(=O)CCc2nc3cc(Br)ccc3s2)C1	–	–	-6% and 4%
Cn1nc(C(=O)N2CCc3nc(NC(=O)c4ccccn4)sc3C2)ccc1=O	-13	2.51	–
CN1CCN(CCC(=O)Nc2ccc(F)cc2)CC12CCCCC2	-16	2.55	–
O=C(NCc1ccccc1)c1coc(CN2CCN(Cc3ccc(F)cc3F)CC2)n1	-9	1.34	–
O=C(N[C@H]1CCCn2ncnc21)c1cc2n(n1)CCC2	1	-0.08	–
COc1ccc(CCn2cc(C(N)=O)cn2)cc1	-12	1.05	–
O=C(CNC(=O)[C@H]1CCS(=O)(=O)C1)Nc1cccc2ccccc12	-10	1.31	–
CCc1nc(CNC(=O)c2ccc(-c3ccc(OC)c(OC)c3)cc2)no1	0	-0.04	–
Cc1cc(C)n(C)c(=O)c1C(=O)NCc1cccnc1N1CCCN(C)CC1	-12	1.13	–
CN(CCNc1ncc(F)c(N2CCOCC2)n1)S(C)(=O)=O	7	-0.96	–
CC(OC(=O)C1CCCN1S(C)(=O)=O)C(=O)Nc1ccccc1C#N (stereo not given)	-12	1.35	–
COc1ccc(C2(c3nc(C4CCCC4)nn3CC(=O)O)CC2)cc1	6	-0.85	–
CC(C)C(=O)N1C[C@H](NC(=O)OC(C)(C)C)[C@@H](c2cnn(C)c2)C1	-2	0.31	–
c1ccc(-c2ccc3occc3c2)c(CN2CCOCC2)c1	8	-0.98	–
O=C(C[n+]1ccccc1-c1nc(-c2ccc(Cl)cc2)cs1)c1ccccc1	-7	1	–
